The whole screen tested about 310,000 compounds, of which about 2,200 (0.71%) showed an effect of 50% or more. Effects have a minus sign here. Some of the results follow.

These results are taken from publication PMC4336329 (PLoS ONE, 2015).

The target in this experiment is human ether-à-go-go-related gene (hERG) potassium channel (human, UniProt Q12809). Put plainly: primary screen, population patch clamp on CHO cells stably expressing hERG.
Sequence of human ether-à-go-go-related gene (hERG) potassium channel (Q12809 whole entry, looked up): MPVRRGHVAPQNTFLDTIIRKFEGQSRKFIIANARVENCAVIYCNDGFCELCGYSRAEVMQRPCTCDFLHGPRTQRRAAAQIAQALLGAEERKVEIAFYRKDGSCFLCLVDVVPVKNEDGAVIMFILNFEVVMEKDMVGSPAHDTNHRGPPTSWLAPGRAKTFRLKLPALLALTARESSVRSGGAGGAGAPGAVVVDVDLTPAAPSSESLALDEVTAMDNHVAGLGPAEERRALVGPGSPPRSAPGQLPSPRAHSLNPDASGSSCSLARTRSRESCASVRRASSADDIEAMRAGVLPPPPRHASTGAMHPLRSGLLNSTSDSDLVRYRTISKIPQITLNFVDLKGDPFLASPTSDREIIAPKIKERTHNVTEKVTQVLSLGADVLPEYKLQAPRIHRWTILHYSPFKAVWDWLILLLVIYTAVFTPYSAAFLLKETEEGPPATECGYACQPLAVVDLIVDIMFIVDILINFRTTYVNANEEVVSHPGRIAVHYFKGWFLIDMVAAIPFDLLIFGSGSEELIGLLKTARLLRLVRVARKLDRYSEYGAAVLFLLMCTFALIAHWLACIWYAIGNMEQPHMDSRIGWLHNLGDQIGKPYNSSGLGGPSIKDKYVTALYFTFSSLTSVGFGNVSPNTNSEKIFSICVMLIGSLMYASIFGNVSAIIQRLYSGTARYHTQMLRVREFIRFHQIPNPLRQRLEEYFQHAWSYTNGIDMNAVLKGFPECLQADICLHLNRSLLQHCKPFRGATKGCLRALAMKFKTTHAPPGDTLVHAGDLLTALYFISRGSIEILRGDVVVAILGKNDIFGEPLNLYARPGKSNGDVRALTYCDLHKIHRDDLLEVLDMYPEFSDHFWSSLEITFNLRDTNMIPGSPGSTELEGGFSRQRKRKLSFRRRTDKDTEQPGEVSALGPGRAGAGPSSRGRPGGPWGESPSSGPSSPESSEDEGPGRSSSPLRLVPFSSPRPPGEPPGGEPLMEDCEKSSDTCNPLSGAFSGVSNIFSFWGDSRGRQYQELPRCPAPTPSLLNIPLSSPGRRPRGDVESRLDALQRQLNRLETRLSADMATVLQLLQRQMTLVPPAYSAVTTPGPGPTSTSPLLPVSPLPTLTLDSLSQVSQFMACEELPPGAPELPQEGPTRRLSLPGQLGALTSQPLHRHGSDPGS
Regarding `Cc1sc2ncnc(N3CCOCC3)c2c1C`, the “hERG current change (%, negative = inhibition) at 1uM” value is -5.93%.

Take `O=S(=O)(c1ccc(=S)[nH]c1)N1CCCCCC1`: the “hERG current change (%, negative = inhibition) at 1uM” value is given as 11.8%.

Take `Cc1c(C(=O)NCc2ccc(F)cc2)oc2ccc(S(=O)(=O)N3CCOCC3)cc12`: the “hERG current change (%, negative = inhibition) at 1uM” value came to 10.1%.

In the case of `Cc1cc(COc2ccccc2O)on1`, the “hERG current change (%, negative = inhibition) at 1uM” value was 9.61%.

Regarding `O=C(CCc1ccc(S(=O)(=O)NC2CCCCC2)cc1)Nc1ccccc1`, the “hERG current change (%, negative = inhibition) at 1uM” value worked out at 10.6%.

As for `CCOC(=O)c1c(NC(=O)CSc2nnc(-c3c[nH]c4ccccc34)n2CCOC)sc2c1CCCC2`, the “hERG current change (%, negative = inhibition) at 1uM” value was found to be 15.2%.

Consider `CCNC(=S)/N=C(/Nc1ccc(OC)cc1)Nc1nc(C)cc(C)n1`, for which the “hERG current change (%, negative = inhibition) at 1uM” value turned out to be 8.68%.

In the case of `Cc1cc(C)n2cc(CSc3ccc(Cl)cc3)nc2n1`, the “hERG current change (%, negative = inhibition) at 1uM” value was -19.5%.

Consider `Cc1cc(OCC(=O)Nc2ccccc2N2CCOCC2)c(C(C)C)cc1Cl`, for which the “hERG current change (%, negative = inhibition) at 1uM” value was determined as 10.3%.

With `O=C(Cc1ccccc1)NNS(=O)(=O)c1ccc(F)cc1`, the “hERG current change (%, negative = inhibition) at 1uM” value worked out at 5.14%.

`CN(C)S(=O)(=O)N(CC(=O)Nc1cccc(F)c1)c1ccccc1`: the “hERG current change (%, negative = inhibition) at 1uM” value is 3.23%.

In the case of `Cc1nnc(NC(=O)CSc2nnc(CNC(=O)c3ccc(F)cc3)o2)s1`, the “hERG current change (%, negative = inhibition) at 1uM” value is on record as 12%.

For `O=C(Nc1cc(=O)[nH]c(=O)[nH]1)c1cccc(Br)c1`, the “hERG current change (%, negative = inhibition) at 1uM” value is 17.4%.

As for `O=C(O)c1[nH]c2ccc(Cl)cc2c1CC(=O)N1CCN(C(=O)c2ccco2)CC1`, the “hERG current change (%, negative = inhibition) at 1uM” value came to 12.5%.

As for `Cn1c(-c2ccc(CN3CCCCC3)o2)nc2ccccc21`, the “hERG current change (%, negative = inhibition) at 1uM” value is reported as -3.89%.

As to `CCCCSCCCNC(=O)c1cn(C)c2ccc(S(=O)(=O)N3CCCC3)cc2c1=O`, the “hERG current change (%, negative = inhibition) at 1uM” value is given as 13.3%.

Turning to `O=C(NCCCn1ccnc1)/C(=C\c1ccc(Br)cc1)NC(=O)c1ccccc1F`, the “hERG current change (%, negative = inhibition) at 1uM” value is -81.5%.

For `O=C1CCCc2ccccc2N1Cc1ccc(Cl)cc1Cl`, the “hERG current change (%, negative = inhibition) at 1uM” value is reported as 3.98%.

As for `COc1cccc(C2=NOC(C(=O)Nc3cc(C)on3)C2)c1` (centres unmarked), the “hERG current change (%, negative = inhibition) at 1uM” value turned out to be 6.07%.

As for `Cc1cnc(CN(C)C(=O)C2CCC(=O)N(CCc3cccc(F)c3)C2)[nH]1` (centres unmarked), the “hERG current change (%, negative = inhibition) at 1uM” value was 13.2%.

On to `Nc1c(C(O)(C(F)(F)F)C(F)(F)F)cc(C(O)(C(F)(F)F)C(F)(F)F)c2ccccc12`, for which the “hERG current change (%, negative = inhibition) at 1uM” value is 13.3%.

`N=c1c2ccccc2nc2n1CCCCCCCCCCC2`: the “hERG current change (%, negative = inhibition) at 1uM” value is -16.6%.

Take `O=C(CC1CC2CCC1C2)Nc1nc(-c2ccccn2)cs1` (centres unmarked): the “hERG current change (%, negative = inhibition) at 1uM” value stood at 1.24%.

In the case of `c1ccc(C(c2ccccc2)N2CCN(Cc3nnnn3C3CCCCC3)CC2)cc1`, the “hERG current change (%, negative = inhibition) at 1uM” value turned out to be 3.19%.

Take `CC(=O)N1c2ccccc2CCc2ccc(N)cc21.Cl`: the “hERG current change (%, negative = inhibition) at 1uM” value amounted to 13.4%.

With `CCCn1c(C)cc(C(=O)COC(=O)c2ccc(Cl)c(S(=O)(=O)N3CCCC3)c2)c1C`, the “hERG current change (%, negative = inhibition) at 1uM” value stood at 11.1%.

Take `Nc1cc(Cl)ccc1N1C(=O)CCC1=O`: the “hERG current change (%, negative = inhibition) at 1uM” value worked out at 11.3%.

With `O=C(c1ccc(S(=O)(=O)c2ccc(Cl)cc2)cc1)N1CCOCC1`, the “hERG current change (%, negative = inhibition) at 1uM” value is on record as -3.98%.

As to `CC1(C)Cc2nc3oc4c(NCc5ccccc5)ncnc4c3cc2CO1`, the “hERG current change (%, negative = inhibition) at 1uM” value is -5.07%.

Turning to `Cc1cc(O)c(C(=O)/C=C/c2ccccc2Br)c(=O)o1`, the “hERG current change (%, negative = inhibition) at 1uM” value is listed as 14.3%.

For `COc1ccc(CN2C(=O)c3ccccc3C(/C=N/OCc3ccc(Cl)cc3)C2=O)cc1` (centres unmarked), the “hERG current change (%, negative = inhibition) at 1uM” value is 13.6%.

`CC(C)Cn1c(-c2csc(C(C)C)c2)n[nH]c1=S`: the “hERG current change (%, negative = inhibition) at 1uM” value amounted to 2.21%.

As for `O=C(CCCN1C(=O)CCC1=O)Nc1ccc(Cl)c(C(F)(F)F)c1`, the “hERG current change (%, negative = inhibition) at 1uM” value is on record as 8.15%.

On to `CC(C)CC(=O)Nc1ccc(C(=O)Cn2c(=O)oc3ccccc32)cc1`, for which the “hERG current change (%, negative = inhibition) at 1uM” value amounted to 8.72%.

On to `CCN(CC#CCC(O)(c1ccccc1)C1CCCC1)C(C)C.Cl` (centres unmarked), for which the “hERG current change (%, negative = inhibition) at 1uM” value is recorded as -6.91%.

`O=C1c2ccccc2S(=O)(=O)N1Cc1ccccc1[N+](=O)[O-]`: the “hERG current change (%, negative = inhibition) at 1uM” value came out at 12.2%.

With `O=C(CSc1nnc(-c2ccccc2)o1)c1ccc2c(c1)OCCO2`, the “hERG current change (%, negative = inhibition) at 1uM” value is 11.6%.

Turning to `COc1ccccc1NC(=O)c1ccc(Cl)c(S(=O)(=O)NCc2ccco2)c1`, the “hERG current change (%, negative = inhibition) at 1uM” value came to 9.55%.

As to `COC(=O)c1ccccc1NC(=O)C1=CC(c2cccs2)=NS(=O)(=O)N1C`, the “hERG current change (%, negative = inhibition) at 1uM” value turned out to be 5.74%.

Take `CC(C)c1ccc(/C=N/Nc2cc(N3CCOCC3)nc(N3CCOCC3)n2)cc1`: the “hERG current change (%, negative = inhibition) at 1uM” value was -8.97%.

As for `COc1cc(CNCCN(C)C)c(Br)cc1OCC(=O)NCc1ccccc1`, the “hERG current change (%, negative = inhibition) at 1uM” value is given as -7.73%.

As to `COCCCNS(=O)(=O)c1ccccc1`, the “hERG current change (%, negative = inhibition) at 1uM” value is listed as 4.86%.

In the case of `CC(C)C[C@H](NC(=O)c1nc[nH]c1C(=O)NC1CCN(C(=O)OC(C)(C)C)CC1)C(=O)OCc1ccccc1`, the “hERG current change (%, negative = inhibition) at 1uM” value is listed as 6.18%.

As for `Cc1ccc(C(C(=O)NC2CCCCC2)N(CC2CCCO2)C(=O)CNC(=O)c2ccco2)cc1` (centres unmarked), the “hERG current change (%, negative = inhibition) at 1uM” value was -0.612%.
